# Data: the supplement of paper PMC3334620
# The full ranking holds about 33,000 sequences; the median of “E-score (-0.5 to 0.5)” is about -0.053, and the highest 2% start at about 0.37. The list shows a part of the results.
# Target: Hap1 (UniProt P0CE41)
# Test: PBM E-score (8-mer binding enrichment) (E-score (-0.5 to 0.5)); higher = stronger / more preferred TF binding; most listed sequences are background and not binding sites
# Settings: protein concentration: 200 nM; construct: GST-DNA-binding domain
# In short: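 E-scores (a modified Wilcoxon-Mann-Whitney statistic) were assigned by the Universal PBM Analysis Suite to every ungapped eight-base word pooled with its reverse complement. The input came from universal all-10-mer Agilent arrays made double-stranded by primer extension and probed with GST-tagged yeast transcription factors at about 100-200 nM. Fluorescent anti-GST detected bound protein, and masliner normalised the scans.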
# UniProt P0CE41, sequence (P0CE41 whole entry): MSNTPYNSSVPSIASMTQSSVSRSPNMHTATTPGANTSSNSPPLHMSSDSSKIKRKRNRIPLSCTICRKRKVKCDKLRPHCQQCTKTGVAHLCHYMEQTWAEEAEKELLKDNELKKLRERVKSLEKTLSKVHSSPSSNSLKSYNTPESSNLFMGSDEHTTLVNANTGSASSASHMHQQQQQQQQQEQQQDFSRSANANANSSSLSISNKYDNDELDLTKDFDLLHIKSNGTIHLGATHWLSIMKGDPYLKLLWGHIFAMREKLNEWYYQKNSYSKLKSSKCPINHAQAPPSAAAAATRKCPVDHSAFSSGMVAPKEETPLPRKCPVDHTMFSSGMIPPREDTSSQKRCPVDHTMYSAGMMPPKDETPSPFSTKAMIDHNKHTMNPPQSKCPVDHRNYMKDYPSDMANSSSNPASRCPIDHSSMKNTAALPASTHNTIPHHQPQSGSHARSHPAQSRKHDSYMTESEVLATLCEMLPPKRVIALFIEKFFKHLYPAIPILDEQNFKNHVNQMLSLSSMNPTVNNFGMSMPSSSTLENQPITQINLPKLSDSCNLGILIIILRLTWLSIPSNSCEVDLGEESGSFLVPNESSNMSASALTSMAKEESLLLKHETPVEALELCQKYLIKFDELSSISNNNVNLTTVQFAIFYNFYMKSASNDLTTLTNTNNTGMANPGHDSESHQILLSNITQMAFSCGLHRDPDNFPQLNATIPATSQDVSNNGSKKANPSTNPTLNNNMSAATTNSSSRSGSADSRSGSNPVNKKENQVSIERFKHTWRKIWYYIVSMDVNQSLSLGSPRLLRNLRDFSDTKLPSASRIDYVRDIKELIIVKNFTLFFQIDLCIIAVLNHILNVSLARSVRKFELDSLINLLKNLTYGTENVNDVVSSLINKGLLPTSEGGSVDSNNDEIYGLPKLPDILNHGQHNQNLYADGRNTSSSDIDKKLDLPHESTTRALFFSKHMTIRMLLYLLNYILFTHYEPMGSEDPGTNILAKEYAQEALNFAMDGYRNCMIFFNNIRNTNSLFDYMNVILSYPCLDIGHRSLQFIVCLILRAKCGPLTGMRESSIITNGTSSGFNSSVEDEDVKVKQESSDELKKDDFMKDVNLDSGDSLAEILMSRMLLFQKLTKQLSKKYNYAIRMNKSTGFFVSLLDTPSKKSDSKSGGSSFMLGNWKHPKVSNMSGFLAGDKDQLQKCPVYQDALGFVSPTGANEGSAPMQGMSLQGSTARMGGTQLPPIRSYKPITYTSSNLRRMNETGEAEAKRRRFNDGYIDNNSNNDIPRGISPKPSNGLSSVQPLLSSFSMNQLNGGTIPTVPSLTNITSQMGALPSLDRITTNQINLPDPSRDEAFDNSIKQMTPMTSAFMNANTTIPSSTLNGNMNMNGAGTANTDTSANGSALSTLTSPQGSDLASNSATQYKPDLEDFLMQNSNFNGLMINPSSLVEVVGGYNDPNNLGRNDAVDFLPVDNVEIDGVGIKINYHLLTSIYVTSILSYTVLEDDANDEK
row,Sequence,PBM E-score
1,ATCCGTCC,0.207
2,CGGGTACC,-0.0457
3,ATTTCCAC,0.149
4,AGCTCTTG,-0.345
5,ATTAAAGG,0.0303
6,AGTGCTGA,-0.188
7,ACGGCGGC,0.0766
8,CCCTTACC,-0.145
9,ACGAACCG,0.117
10,CCGCTAAA,0.365
11,CCCAGCCC,-0.174
12,AAGTATCG,0.201
13,GGATCCAA,0.178
14,GGAACGTA,-0.124
15,GCATTGCC,-0.0638
16,CGCGGAAG,0.181
17,AATAGTTC,-0.0332
18,ACCGGTGC,0.309
19,AATAACTC,0.125
20,AAGGCGGT,-0.226
21,AGGCTAGG,-0.29
22,TTGCACAA,-0.266
23,CGATCATC,0.186
24,AGCATGTG,-0.177
25,TACGCGAA,0.0315

row,Sequence,PBM E-score
1,CATGATGA,-0.217
2,AGGTCTTG,-0.0988
3,AAGGGGGA,-0.179
4,ATTGTATA,0.148
5,TGGCAACA,-0.207
6,CGGAGGAA,0.375
7,CAACAGGC,-0.212
8,AATCCAGT,0.219
9,CCTTAGGA,-0.0943
10,TATTTCAA,-0.255
11,AGGGCCCC,-0.176
12,TGAGCGCA,-0.178
13,CGCCCAGA,-0.189
14,ACCGTTTG,-0.0435
15,AGGGGTCC,-0.117
16,CCTGGCGA,-0.179
17,AAAGTTGC,-0.198
18,TACCGTCA,0.108
19,TAGCTCAA,-0.162
20,CATTGGGC,-0.228
21,ATCCTTCA,-0.199
22,GACTTCAC,0.069
23,GCACTCAC,-0.175
24,GCGAGCGC,0.137
25,GGCTTAAA,0.165

row,Sequence,PBM E-score
1,CTCTCAAA,-0.231
2,AAGCTGGT,-0.198
3,TGAAGCCA,-0.215
4,ATAACAGC,0.157
5,CCACGTTC,-0.0716
6,ATTGCTTG,-0.285
7,GGTAAGGA,-0.157
8,CGTCCACC,-0.0148
9,AAAACAAT,-0.025
10,TCACGCCA,-0.166
11,GTCCAAGA,-0.271
12,AATAATAA,-0.00534
13,AGACTCCA,-0.28
14,AAGTACCA,-0.0621
15,TATAGGCA,-0.161
16,TAGTTGAA,-0.138
17,AATTAAAT,-0.0668
18,CAGCCGAG,0.238
19,CCATTTCC,0.113
20,GCGTTTTA,-0.0109
21,CACGATAC,0.0318
22,CTGTCTCA,-0.152
23,CAATATCC,0.239
24,CCGGCTCC,0.296
25,AGTGCGGA,0.237

row,Sequence,PBM E-score
1,AGGGCCAC,-0.161
2,GTTCGACA,-0.159
3,AAACAGAT,-0.145
4,AGCTTTGG,-0.135
5,ACGTAATG,-0.0643
6,AGGGTCCC,-0.138
7,ATCCCTGA,-0.189
8,GCGAAGCC,0.027
9,CCGAAAAG,0.311
10,GTGCCAAC,-0.089
11,TAAACTTA,-0.18
12,CTGTTTCA,-0.205
13,ATGGGAGA,-0.315
14,GGAGAACC,0.141
15,AGGCGCGG,0.0699
16,AAAATCGT,-0.036
17,CAGAGCGC,-0.16
18,AGATCCAT,-0.00855
19,GATTAGGA,0.0759
20,CTCAGGAA,-0.108
21,AGTTTAAG,-0.206
22,CTGAGACA,-0.237
23,TTAAGCAA,-0.0763
24,CCGCGTTA,0.219
25,ATCCAGTG,-0.0388

row,Sequence,PBM E-score
1,TAATTCTA,-0.0424
2,GCGCTCGA,0.05
3,CTCCTGGA,-0.254
4,GCCGGACA,0.423
5,ACGTCGGG,0.28
6,GACTGTGA,-0.22
7,AGCCCATA,-0.133
8,AGGATTCC,-0.0591
9,CTAGATGC,-0.224
10,CCATCTCC,0.209
11,GGCCGCCA,0.0115
12,AGCTCTTA,-0.0357
13,AGGAACCT,-0.136
14,ATGTTATA,-0.135
15,ATAGGCAA,-0.214
16,ACTCGCTC,-0.0161
17,AAATGAAA,0.0924
18,AGGCTTAA,-0.0524
19,CGTCGGAA,0.306
20,CGACTCGA,-0.0777
21,CAAGAACA,-0.233
22,GGTATGTA,0.0143
23,ATCTCCGC,0.455
24,CCACTTGC,-0.183
25,ACCCATCT,-0.0427

row,Sequence,PBM E-score
1,ACGAGGGA,-0.116
2,CGCAAAGC,0.189
3,CTCCGAAA,0.41
4,GAGATGGA,0.00614
5,CGGAGGGA,0.255
6,GAGAAACA,0.0153
7,GAGTGTGA,-0.176
8,CGGCCAAC,0.214
9,ATCCCTAA,-0.191
10,AAAGCCGC,0.305
11,GCAGCGGC,-0.00312
12,CACACGTA,-0.285
13,CCGTTGCG,0.198
14,ACGGTTAT,0.117
15,CAATGAGA,-0.207
16,ACCGTCCT,-0.0937
17,ACCAGGTA,-0.0386
18,AAATTGGA,-0.051
19,AACGATTG,-0.0367
20,AGGTAGTG,-0.102
21,CCTTGGAG,-0.109
22,GCGGGAAA,0.195
23,GAATTACA,0.0547
24,ATGTCGGA,0.348
25,GGCTGAAA,0.0341

row,Sequence,PBM E-score
1,CTCTCGCC,-0.00995
2,AGATCGAA,0.00519
3,CGTGACCC,0.0718
4,AGTGGCCG,0.268
5,CCCATCGC,0.0391
6,GTTTCTTA,-0.0575
7,AAAAGGTT,-0.211
8,ATTCATCC,0.0829
9,AGATAGTC,-0.0926
10,CCATAATA,0.0593
11,CCCTGAGG,-0.266
12,CAGTGATC,-0.119
13,TCTAGAGA,-0.337
14,CGTATTAG,0.00416
15,ACAATCGA,-0.15
16,ACGCGCGG,0.196
17,CTCATAGA,-0.236
18,TATACTGA,0.0129
19,ACAAAGTG,-0.127
20,ATGAGGAC,-0.104
21,GCCATCGC,-0.0154
22,CGTTTGCC,0.114
23,AGATAATG,0.0272
24,ATTATTAA,0.154
25,TGAAAAAA,-0.0471

row,Sequence,PBM E-score
1,CACGCCGG,0.311
2,AAGTGCAA,-0.176
3,TGTGATAA,-0.15
4,TGATTCAA,-0.12
5,CACATGGA,-0.249
6,TCGCCCAA,-0.162
7,ATGAATAC,-0.0929
8,CAACCGGG,0.262
9,GAATAAAA,0.0566
10,AGTCACCC,-0.139
11,CGTCGGTA,0.0831
12,TCCTAAGA,-0.0703
13,ATATGATG,-0.111
14,GTTGTAAA,-0.135
15,AGGGCAGC,-0.243
16,ATGCACAA,-0.22
17,AAACATGG,-0.139
18,ACCAGCGC,-0.167
19,GCTTGATA,-0.258
20,GCATACAA,-0.0244
21,AACGGGAA,0.195
22,ACCACGTG,-0.195
23,ACGTGTAG,-0.16
24,GCATCCCC,0.163
25,GGACTCTA,-0.031

row,Sequence,PBM E-score
1,ACGGCGAG,-0.0171
2,ATATCGGG,0.436
3,AATGAAGT,-0.16
4,TCAAATGA,0.0153
5,CATAATCG,0.217
6,ATTAAGTC,-0.113
7,CTACCGCA,0.108
8,AAGAGGTG,-0.147
9,ACTCTAAA,-0.0227
10,CTGAAGTC,-0.0811
11,GCTTGCCA,-0.167
12,AGCGCGCT,0.0619
13,TCGGCGAA,0.34
14,AGGTATTA,0.0089
15,ACTACTAG,0.0349
16,AGAAGTCC,0.0588
17,CAATACGC,0.034
18,CTGAACGC,-0.0902
19,CCGGCCGG,0.456
20,AGGTGAGG,-0.178
21,CCCGGCAA,0.401
22,GCCCTGCC,-0.1
23,GCATCACC,-0.0719
24,TTCCTAAA,-0.144
25,GGTGACAA,0.0944

row,Sequence,PBM E-score
1,CAGGGTCG,0.16
2,CTCTTTTA,-0.336
3,AAAGATCC,0.0926
4,AGGTTCCG,0.277
5,TGCACAAA,-0.295
6,AGCCATAC,-0.274
7,CCCGGATC,0.345
8,CACTGCAC,-0.077
9,AGTTCTTG,-0.141
10,ATGGTAAA,-0.0612
11,CGGAATAA,0.32
12,AAGATCGT,-0.0868
13,CTTTTTAC,-0.0669
14,CACACAGG,-0.286
15,ATGGCAAC,-0.023
16,GAATGGTA,-0.139
17,GTGTGTGA,-0.201
18,AAATCGTA,-0.0467
19,GTTCTTCA,-0.177
20,ACCAGTTA,-0.225
21,CGCTGTCA,-0.13
22,AATCCTCG,0.0735
23,AGTGTCTC,-0.0517
24,CCGTTTAA,0.239
25,GATGTTGC,0.0499

row,Sequence,PBM E-score
1,ACAGACTC,-0.259
2,GCTGCCAA,-0.148
3,ATATGGCA,-0.183
4,CACCCACG,0.0671
5,CTAGCACA,-0.188
6,ACGTGCAT,-0.299
7,TTCGACAA,-0.265
8,ACTTCCCC,-0.127
9,CCCCAACG,-0.0534
10,CGAGTAAC,0.07
11,GGACCCTA,-0.0296
12,GCTGCGGA,0.273
13,GTGTATCA,-0.0421
14,CAGCACAC,-0.233
15,ACAACAAG,-0.149
16,AAGTTAGG,-0.0844
17,AGTGTCAG,-0.352
18,ACTCCATC,0.234
19,ACTCGTCA,-0.226
20,CTTAGGGA,-0.308
21,CGGTCTAG,0.135
22,GGAGGGCA,-0.07
23,AAAATACG,-0.0193
24,CAATTTCA,-0.266
25,ATGGATGC,-0.177

row,Sequence,PBM E-score
1,CAGTACTG,-0.213
2,ATTAACCG,0.307
3,GACTCTAC,-0.172
4,TACTGGAA,-0.0919
5,AAGGGGGG,-0.228
6,ACTAGGGC,-0.197
7,CGCCGCCG,0.276
8,ATCCAAAG,-0.142
9,GTCCTAAC,-0.053
10,CACAGCGC,0.0269
11,CAATCGTA,-0.0582
12,CGCCGTGA,0.0995
13,CACGGGGC,0.16
14,AGAGGTCA,-0.04
15,ATATAATA,0.0467
16,GGGTAACA,-0.0917
17,CACGCGTC,0.177
18,CGCCATGC,-0.0187
19,ATCACTTC,-0.0867
20,AGACCCTC,-0.0464
21,CCCTTAAC,0.0199
22,CGTGGAAG,0.0468
23,CGCCTTAA,-0.0792
24,GGGGGACA,-0.0444
25,GGTGTGGA,-0.00568

row,Sequence,PBM E-score
1,CATTCACG,-0.0195
2,GGACCTAA,0.371
3,CAGTAACC,0.0446
4,GGTTATCA,-0.119
5,AACTTTGT,0.0406
6,CTTCTGGC,-0.347
7,ATTCCCCA,-0.074
8,CACGGGCA,-0.0139
9,TGCAACCA,-0.257
10,GTGGTGAA,-0.0351
11,CCTGGACA,-0.148
12,CCTAGTAC,-0.198
13,CCAGGCAA,-0.0424
14,CTGCACCA,-0.16
15,CTTTTGTA,-0.0575
16,AGCGAGAC,0.0175
17,CTCATGCC,-0.0358
18,ACGACGGG,-0.0752
19,AATCTGAT,-0.0367
20,TGGCTCAA,-0.316
21,CCTCTTAC,-0.187
22,CGTTCAAA,0.0352
23,CATTGCGA,-0.149
24,AGTTCCTG,-0.178
25,CATTGAGA,-0.153

row,Sequence,PBM E-score
1,GGATTCCC,0.12
2,GGGTTAAC,0.272
3,AGCAAACA,-0.0267
4,CAGCGTCA,-0.117
5,CCAGGTCA,-0.134
6,CCCTAGCA,-0.159
7,GCTCTGCC,-0.0514
8,CGACGAAG,0.0792
9,CTATAGAC,-0.196
10,GTGTAGAA,-0.299
11,AGCTTGGG,0.0943
12,GGTTTGCA,0.0506
13,ACTACCTA,-0.0554
14,CAGAATGA,-0.149
15,GAAATGAA,0.0592
16,AACCATTG,-0.101
17,ATCCTTGC,-0.143
18,CCAAAGCA,-0.179
19,AATTACCC,0.0864
